Source: PubChem BioAssay AID488969 (Vanderbilt High Throughput Screening Facility, 2010)
The full ranking holds about 110,000 compounds; the median of “z-score” is about -0.1, and the highest 2% start at about 2. The list shows a part of the results. Calls of active or inactive are those of the source.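 Rule for the calls: active = z-score in the third read window above 3 or below -3; inactive = the rest.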

Each compound was assayed against Metabotropic glutamate receptor 8 (Rattus norvegicus) (UniProt P70579) (assay: mGluR8 Gi/Go-coupled signaling modulation – cell-based, rat, thallium flux, HTS, primary screen (AID 488969)). Conditions: HEK293 rat mGluR8, GIRK (G protein-gated inwardly rectifying potassium channel) thallium flux, FluoZin2; at 10 µM; stronger effect = higher value; submaximal glutamate (EC20) added with thallium.
UniProt P70579, sequence (P70579 whole entry, looked up): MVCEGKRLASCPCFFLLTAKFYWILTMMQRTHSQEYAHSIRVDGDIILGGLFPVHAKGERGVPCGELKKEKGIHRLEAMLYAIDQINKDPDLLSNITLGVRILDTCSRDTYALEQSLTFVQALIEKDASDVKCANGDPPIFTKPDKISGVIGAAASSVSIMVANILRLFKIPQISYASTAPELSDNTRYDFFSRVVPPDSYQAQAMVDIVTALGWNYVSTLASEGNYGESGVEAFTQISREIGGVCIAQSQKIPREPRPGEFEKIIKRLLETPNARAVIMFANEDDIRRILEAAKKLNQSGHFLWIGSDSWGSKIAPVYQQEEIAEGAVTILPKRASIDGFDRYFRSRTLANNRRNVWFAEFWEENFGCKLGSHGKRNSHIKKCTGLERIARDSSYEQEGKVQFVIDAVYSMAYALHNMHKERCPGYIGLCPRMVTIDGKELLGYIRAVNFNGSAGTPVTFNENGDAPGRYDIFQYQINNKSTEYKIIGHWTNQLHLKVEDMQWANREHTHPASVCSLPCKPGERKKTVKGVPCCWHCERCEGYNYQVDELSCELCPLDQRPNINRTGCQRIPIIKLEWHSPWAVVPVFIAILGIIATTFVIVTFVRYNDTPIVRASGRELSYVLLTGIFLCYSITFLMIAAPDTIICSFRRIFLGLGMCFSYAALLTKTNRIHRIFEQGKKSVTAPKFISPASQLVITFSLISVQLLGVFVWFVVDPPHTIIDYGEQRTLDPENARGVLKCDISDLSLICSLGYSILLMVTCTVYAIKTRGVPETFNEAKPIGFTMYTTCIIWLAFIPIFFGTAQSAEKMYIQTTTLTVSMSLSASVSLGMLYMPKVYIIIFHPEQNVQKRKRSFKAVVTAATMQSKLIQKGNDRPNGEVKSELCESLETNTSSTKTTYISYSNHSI

| SMILES | z-score |
| --- | --- |
| COC(=O)CCC(=O)Nc1nc(-c2ccccc2)cs1 | -0.155 |
| CCOC(=O)c1ccccc1NC(=O)CSc1nnc(COc2ccccc2)n1CC | active: -3.94 |
| O=C(NCc1ccco1)C1CCCN1C(=O)NCc1ccccc1 (stereo not drawn) | 0.459 |
| O=C(Nc1cccc(C(F)(F)F)c1)Nc1ccc(N2CCCC2)c(S(=O)(=O)Nc2ccccc2Cl)c1 | -0.0836 |
| Cc1nc2cc(NC(=O)N(C)c3ccc4ccccc4c3)ccc2o1 | 0.358 |
| CCOc1ccc(N/C=C/C(=O)c2ccc3ccccc3c2)c([N+](=O)[O-])c1 | 0.0139 |
| O=C1NC(c2ccccc2Cl)Nc2ccccc21 (stereo not drawn) | -0.44 |
| C/C(=C/C=N/Nc1nc(N2CCCCC2)nc(N2CCCCC2)n1)c1ccccc1 | -0.421 |
| COc1ccc(C(C(=O)NC2CCCC2)N(CCN(C)C)C(=O)c2snc(C(N)=O)c2N)cc1 (stereo not drawn) | -0.226 |
| COc1ccc(/C=C(\C#N)C(=O)NCc2cccs2)cc1OC | -0.295 |
| Cc1nc2sc(C(c3cccs3)N3CCOCC3)c(O)n2n1 (stereo not drawn) | -0.505 |
| Cn1nc(C(F)(F)F)c(C(=O)Nc2ccc(F)cc2F)c1Sc1ccc(C(F)(F)F)cc1 | 0.101 |
| CC1CCc2c(C(=O)Oc3cccc(-n4cnnn4)c3)csc2C1 (stereo not drawn) | -0.416 |
| CCOC(=O)Cn1cnc2sc3c(c2c1=O)CCC3 | 0.161 |
| CCc1cccc(NC(=O)CCc2nc(-c3cccs3)no2)c1 | 0.229 |
| Cc1ccc(S(=O)(=O)N2CC(=O)Nc3ccccc32)cc1C | 0.454 |
| COc1ccc(C)cc1-n1c(SCC(=O)Nc2cc(C)on2)nc2sc(C)c(C)c2c1=O | 0.423 |
| O=S(=O)(NCc1ccncc1)c1ccccc1 | -0.594 |
| CC(C)C1=NN(C(=O)c2cccnc2)C(O)(C(F)(F)F)C1 (stereo not drawn) | -0.418 |
| Nc1ncnc2c1ncn2C1CCC(CO)C(O)C1 (stereo not drawn) | -0.256 |
| CCOC(=O)CN(C(=O)CSc1nnc(C)n1-c1ccccc1)c1cccc([N+](=O)[O-])c1 | 0.245 |
| COc1ccccc1NC(=O)COc1ccc(C(F)(F)F)cc1[N+](=O)[O-] | active: 4.19 |
| O=S(=O)(NCCCc1ccccc1)c1ccc(Cl)cc1 | -0.252 |
| Brc1ccc(-c2nc3ncccn3c2Nc2ccc3c(c2)OCCO3)o1 | -0.598 |
| CCc1cc[n+](/C(C(=S)Nc2cccc(C)c2)=C(/[O-])c2ccc(C)c([N+](=O)[O-])c2)cc1 | -0.334 |
| C=CCN=C1NN=C(c2cc(C)n(CCOC)c2C)CS1 | 0.0624 |
| Cc1cc(CN2CCCCC2)oc1C(=O)O | -0.285 |

| SMILES | z-score |
| --- | --- |
| Cc1ccc(NC(=O)C2CC(=O)N(c3ccc4c5c(cccc35)CC4)C2)cc1 (stereo not drawn) | -0.138 |
| COc1cc(/C=C2\SC(=O)N(CCNC(=O)c3cnc(C)cn3)C2=O)cc(OC)c1OC | -0.521 |
| COc1ccc(C(=O)NC(=S)NCc2cccnc2)cc1[N+](=O)[O-] | -0.234 |
| c1ccc(C[n+]2csc3ccccc32)cc1 | -0.0142 |
| COc1cc(C(=O)NCc2nnc(SCC(=O)NCc3ccccc3)o2)cc(OC)c1OC | 1.55 |
| Cc1ccc(C)c(NC(=O)CN(C)C(=O)Cc2ccccc2)c1 | -0.403 |
| CCOC(=O)N1CCC(NC(=O)c2ccc(OC)c(CN3CC(=O)N4CCCC4C3=O)c2)CC1 (stereo not drawn) | -0.0166 |
| O=C(Cn1nnc(-c2cccc(C(F)(F)F)c2)n1)N1CCCCCC1 | -1.55 |
| N/C(=N\OC(=O)COc1ccc(Br)cc1Cl)c1ccccn1 | -0.0604 |
| Cn1c(N/N=C\c2cccc(O)c2)cc(=O)n(C)c1=O | 0.0652 |
| CCN(CC)c1nc(Oc2ccc(=O)[nH]n2)nc(N2CCOCC2)n1 | -0.346 |
| COCCOC(=O)C1=C(C)N(c2ccccc2)C(=O)NC1c1cccc([N+](=O)[O-])c1 (stereo not drawn) | -0.0918 |
| Cc1c(N=C2SCC(=O)N2c2c(C)n(C)n(-c3ccccc3)c2=O)c(=O)n(-c2ccccc2)n1C | -0.472 |
| Cc1noc(C)c1C(=O)OCC(=O)Nc1ccccc1C(=O)NC(C)c1ccccc1 (stereo not drawn) | -1.4 |
| CCCC1OC23CCCCC2C(C#N)(C#N)C1(C#N)C(=N)O3 (stereo not drawn) | -0.455 |
| CN1CCN(C(=O)c2cn(C)c3ccc(S(=O)(=O)N(C)C4CCCCC4)cc3c2=O)CC1 | 0.0356 |
| COC(=O)C1(c2ccccc2)NC(c2cccs2)C2C(=O)N(C)C(=O)C21 (stereo not drawn) | -0.191 |
| O=C(c1ccc(F)cc1)N1CCN(c2cc(=O)[nH]nc2-c2ccccc2)CC1 | 0.0606 |
| Cc1cc(=O)[nH]c(SCC(=O)Nc2ccc(S(=O)(=O)N3CCCCC3)cc2)n1 | -1.07 |
| COc1cccc(Cn2cnc3c(NS(=O)(=O)c4cc(Cl)ccc4Cl)c(C)c(C)cc32)c1 | 0.261 |
| CC(C)(C)OC(=O)NCc1nc(N)n[nH]1 | 0.58 |
| Cc1cc2ccccc2c(=O)n1CC(=O)NCC1COc2ccccc2O1 (stereo not drawn) | 0.0188 |
| Cc1[nH]nc2c1C(c1ccc(OC(=O)c3ccco3)cc1)C(C#N)=C(N)O2 (stereo not drawn) | 0.251 |
| CCCCSc1cnn(-c2ccccc2)c(=O)c1SCCCC | -0.108 |
| C/C(=N\Nc1ccc([N+](=O)[O-])cc1[N+](=O)[O-])c1ccc(-n2nncc2C(C)(C)C)cc1 | -2.37 |
| CC(=O)Oc1ccc(C(=O)[C@H]2[C@H]3C(=O)N(c4ccc(C)cc4)C(=O)[C@H]3[C@@H]3C=CC=NN32)cc1 | -0.635 |
